This note sets out measurements from a collection of fitness landscapes (doi:10.1126/science.1257360).

The other results are listed elsewhere or left out.

B1: PhoQ; a variant is named by its letters at X, in order, P23837 (parent)
chain: MKKLLRLFFPLSLRVRFLLATAAVVLVLSLAYGMVALIGYSVSFDKTTFRLLRGESNLFYTLAKWENNKLHVELPENIDKQSPTMTLIYDENGQLLWAQRDVPWLMKMIQPDWLKSNGFHEIEADVNDTSLLLSGDHSIQQQLQEVREDDDDAEMTHSVAVNVYPATSRMPKLTIVVVDTIPVELKSSYMVWSWFIYVLSANLLLVIPLLWVAAWWSLRPIEALAKEVRELEEHNRELLNPATTRELTSLVRNLNRLLKSERERYDKYRTTLTDLTHSLKTPLXXLQXXLRSLRSEKMSVSDAEPVMLEQISRISQQIGYYLHRASMRGGTLLSRELHPVAPLLDNLTSALNKVYQRKGVNISLDISPEISFVGEQNDFVEVMGNVLDNACKYCLEFVEISARQTDEHLYIVVEDDGPGIPLSKREVIFDRGQRVDTLRPGQGVGLAVAREITEQYEGKIVAGESMLGGARMEVIFGRQHSAPKDE

The assay covers variants of B1. Kind of assay: enrichment ratio after two sorts for PhoP signalling (ratio (wild type AVST 3.29)); higher = more functional. Particulars: with PhoP (E. coli).
Turning to MYMH, the enrichment ratio was no more than 0.25.

As for LSKA, the enrichment ratio was no more than 0.25. On to LFGC, for which the enrichment ratio is no more than 0.25. QSIK: the enrichment ratio is no more than 0.25. MRIW: the enrichment ratio was no more than 0.25. The result for GWWG reads no more than 0.25. The result for VVCF reads no more than 0.25; that for HMSM, no more than 0.25; that for LVLN, no more than 0.25.

Take RGVD: the enrichment ratio was no more than 0.25. As to WTQK, the enrichment ratio was no more than 0.25. As to KDYM, the enrichment ratio was no more than 0.25. The result for DYQG reads no more than 0.25. Consider DDKE, for which the enrichment ratio was no more than 0.25. In the case of QDGF it was no more than 0.25; in that of QHYL, no more than 0.25; in that of QESM, 5.67. As for QLTD, the enrichment ratio was no more than 0.25. Turning to MFWV, the enrichment ratio was no more than 0.25. In the case of SAQI, the enrichment ratio was 2.

As for LCAC, the enrichment ratio is no more than 0.25.

As for LFQQ, the enrichment ratio is no more than 0.25. Consider AEGM, for which the enrichment ratio was no more than 0.25. For the variant ICHA, the enrichment ratio was no more than 0.25. As for PQSE, the enrichment ratio was no more than 0.25.

As for STFQ, the enrichment ratio was 5.1.

For LTIS, the enrichment ratio is no more than 0.25. In the case of IHVL it was no more than 0.25; in that of HHYY, no more than 0.25; in that of DWFA, no more than 0.25. In the case of MGTC it was 0.695; in that of YGWP, no more than 0.25; in that of EEQG, no more than 0.25.

For the variant ESGA, the enrichment ratio is no more than 0.25. For the variant VLSS, the enrichment ratio was determined as 0.29. For the variant KSTD, the enrichment ratio was no more than 0.25. As to FNWW, the enrichment ratio is no more than 0.25. As for QALE, the enrichment ratio was no more than 0.25.

Regarding FFWD, the enrichment ratio is no more than 0.25.

Consider DWRN, for which the enrichment ratio is no more than 0.25.

As for YTMP, the enrichment ratio was no more than 0.25. On to LLWP, for which the enrichment ratio was no more than 0.25. Consider VHVN, for which the enrichment ratio was no more than 0.25. Consider RSFM, for which the enrichment ratio is no more than 0.25. Turning to YKRR, the enrichment ratio was no more than 0.25. The result for KAFF reads no more than 0.25; that for IRIP, no more than 0.25. For the variant TLYA, the enrichment ratio is no more than 0.25.

Consider IDMC, for which the enrichment ratio is no more than 0.25. As for GHCE, the enrichment ratio is no more than 0.25.

In the case of DFYI, the enrichment ratio is no more than 0.25. Take QEMS: the enrichment ratio was found to be 2.2. For AITE, the enrichment ratio is no more than 0.25. As for FWCW, the enrichment ratio was no more than 0.25.

NPVC: the enrichment ratio was no more than 0.25.

Regarding NHAK, the enrichment ratio is no more than 0.25. As for HYEL, the enrichment ratio was no more than 0.25. As for DACT, the enrichment ratio was no more than 0.25. The result for KQAA reads no more than 0.25; that for DETH, no more than 0.25. Regarding WNYQ, the enrichment ratio was no more than 0.25. The result for RCGH reads no more than 0.25; that for MMNG, no more than 0.25. With GHAE, the enrichment ratio is no more than 0.25. The result for TVYG reads no more than 0.25; that for TAQC, no more than 0.25; that for GWGS, no more than 0.25. Turning to KQRG, the enrichment ratio is no more than 0.25. As for TIYS, the enrichment ratio came out at 5.68.

Take TFDN: the enrichment ratio is no more than 0.25. As for GEQV, the enrichment ratio is no more than 0.25.

Take WAMH: the enrichment ratio was no more than 0.25.

Take APHW: the enrichment ratio is no more than 0.25. In the case of PVHD it was no more than 0.25; in that of WRPC, no more than 0.25. On to LHFY, for which the enrichment ratio was no more than 0.25. In the case of KHGQ it was no more than 0.25. For GKVV, the enrichment ratio was no more than 0.25.

Turning to EPFR, the enrichment ratio is no more than 0.25. Regarding GSLK, the enrichment ratio was no more than 0.25. Consider RAEA, for which the enrichment ratio was no more than 0.25.

Consider VFKR, for which the enrichment ratio was no more than 0.25. As to FQLQ, the enrichment ratio was 17.7. In the case of CNFG it was no more than 0.25. Take ISYC: the enrichment ratio is no more than 0.25. In the case of MEGS it was 1.88; in that of ICYT, no more than 0.25; in that of WEQA, no more than 0.25.

For APHF, the enrichment ratio was no more than 0.25. For QVWH, the enrichment ratio was no more than 0.25.

Take EFWY: the enrichment ratio is no more than 0.25. Consider PFCM, for which the enrichment ratio is no more than 0.25. In the case of SEPQ, the enrichment ratio is no more than 0.25.

As for IGPY, the enrichment ratio was no more than 0.25. Turning to PGTC, the enrichment ratio is no more than 0.25. In the case of GRYG it was no more than 0.25; in that of EFYV, no more than 0.25; in that of RKQQ, no more than 0.25. As to WEHN, the enrichment ratio is no more than 0.25. GCYD: the enrichment ratio is no more than 0.25. Take DIIS: the enrichment ratio is no more than 0.25.

On to NPAQ, for which the enrichment ratio was no more than 0.25. As for NTIW, the enrichment ratio was no more than 0.25. In the case of RTFM it was no more than 0.25. Turning to LNPY, the enrichment ratio is no more than 0.25. The result for TIPN reads no more than 0.25; that for YSQD, no more than 0.25; that for SALS, 11.5. Consider LHQF, for which the enrichment ratio was no more than 0.25. In the case of NLGY it was no more than 0.25; in that of LQRM, no more than 0.25. In the case of WSDK it was no more than 0.25.

With VQAH, the enrichment ratio was no more than 0.25.

In the case of WDGS, the enrichment ratio is no more than 0.25. Regarding ASRC, the enrichment ratio is no more than 0.25.

In the case of HHNA, the enrichment ratio was no more than 0.25. The result for TFRD reads no more than 0.25; that for DKWH, no more than 0.25. As to HSLP, the enrichment ratio is no more than 0.25. Regarding GSIN, the enrichment ratio is no more than 0.25. The result for TKIE reads no more than 0.25; that for FWFF, no more than 0.25. Regarding HCWW, the enrichment ratio was no more than 0.25. As to QNTW, the enrichment ratio was no more than 0.25. LFNR: the enrichment ratio was no more than 0.25. Turning to VKAP, the enrichment ratio was no more than 0.25.

As for QTGQ, the enrichment ratio is no more than 0.25. Turning to QSCE, the enrichment ratio is no more than 0.25. Take WRCC: the enrichment ratio is no more than 0.25. For FDMM, the enrichment ratio was no more than 0.25. Regarding DKIS, the enrichment ratio was no more than 0.25. Consider AWGF, for which the enrichment ratio is no more than 0.25. With VCSD, the enrichment ratio was no more than 0.25. Take YHEV: the enrichment ratio is no more than 0.25. Consider WDPN, for which the enrichment ratio was no more than 0.25.

On to DHLY, for which the enrichment ratio was no more than 0.25. On to QHNS, for which the enrichment ratio came out at 5.2. In the case of SHFW it was 1.68.

Consider KDFA, for which the enrichment ratio was no more than 0.25. AGAC: the enrichment ratio was found to be 3.28. For the variant YRFK, the enrichment ratio was no more than 0.25.

In the case of SYTC, the enrichment ratio was no more than 0.25.

Take DRWG: the enrichment ratio is no more than 0.25.

Take PFVP: the enrichment ratio was no more than 0.25. The result for QYPH reads no more than 0.25; that for AEKS, no more than 0.25. Take ICPC: the enrichment ratio was no more than 0.25. In the case of NADQ it was no more than 0.25; in that of LNYV, no more than 0.25.

Take MWTR: the enrichment ratio is no more than 0.25.

For HEIS, the enrichment ratio was no more than 0.25. On to KQVA, for which the enrichment ratio is no more than 0.25. DSKD: the enrichment ratio was no more than 0.25. Take YNYP: the enrichment ratio was no more than 0.25.

For the variant LCSL, the enrichment ratio was no more than 0.25. For the variant VRAR, the enrichment ratio is no more than 0.25. Consider KYPV, for which the enrichment ratio was no more than 0.25.

Take LKVW: the enrichment ratio was no more than 0.25. For VWEA, the enrichment ratio is no more than 0.25.

Turning to QPQI, the enrichment ratio is no more than 0.25. In the case of IDKS it was no more than 0.25; in that of NYWP, no more than 0.25. Regarding PHQV, the enrichment ratio is no more than 0.25. Regarding GQCF, the enrichment ratio was no more than 0.25.

For KPGV, the enrichment ratio is no more than 0.25.

On to SVMT, for which the enrichment ratio was 4.75. As to KPHS, the enrichment ratio was no more than 0.25. For the variant MHYG, the enrichment ratio is no more than 0.25.

ILHL: the enrichment ratio was no more than 0.25. The result for ALGW reads 8.41.

Turning to TQWM, the enrichment ratio is no more than 0.25.

Regarding YQPA, the enrichment ratio is no more than 0.25. In the case of NKDR it was no more than 0.25; in that of SYYP, no more than 0.25. As for ESGE, the enrichment ratio was no more than 0.25. Take IMSW: the enrichment ratio was no more than 0.25. With DFDD, the enrichment ratio was no more than 0.25. FVQI: the enrichment ratio is no more than 0.25. GTTW: the enrichment ratio is no more than 0.25.

Regarding LEKT, the enrichment ratio is no more than 0.25.

Consider YDPS, for which the enrichment ratio is no more than 0.25. On to VGVT, for which the enrichment ratio is no more than 0.25.

With YGSH, the enrichment ratio is no more than 0.25. In the case of SSME it was 16.6; in that of HREF, no more than 0.25. Regarding RADA, the enrichment ratio is no more than 0.25. As to WQPI, the enrichment ratio was no more than 0.25. In the case of DDQW it was no more than 0.25; in that of GTAN, no more than 0.25; in that of LDWI, no more than 0.25. In the case of EKDC, the enrichment ratio is no more than 0.25. RIHT: the enrichment ratio was no more than 0.25.

With MKEL, the enrichment ratio was no more than 0.25. As for WEVV, the enrichment ratio is no more than 0.25. In the case of FQCI, the enrichment ratio is no more than 0.25.
